The other results are listed elsewhere or left out. These are noisy estimates, calculated here from bound and input reads.
Molecular target: T1, Pho4 (S. cerevisiae) (UniProt P07270)
T1 sequence: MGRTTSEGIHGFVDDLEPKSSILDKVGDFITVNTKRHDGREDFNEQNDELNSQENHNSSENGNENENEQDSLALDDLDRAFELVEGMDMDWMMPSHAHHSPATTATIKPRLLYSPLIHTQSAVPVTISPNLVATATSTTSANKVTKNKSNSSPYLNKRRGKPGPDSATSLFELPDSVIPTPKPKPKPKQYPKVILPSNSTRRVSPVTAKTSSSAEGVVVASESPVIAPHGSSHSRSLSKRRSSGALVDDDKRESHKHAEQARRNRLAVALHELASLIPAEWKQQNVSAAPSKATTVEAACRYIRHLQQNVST
Test: relative binding free energy (BET-seq); higher = weaker binding
Conditions: reference: library average

| Sequence | relative binding free energy |
| --- | --- |
| GGAGGCACGTGCGTGG | -0.11 kcal/mol |
| CGGGACACGTGTTCGG | 0.09 kcal/mol |
| GGAATCACGTGTTGAG | 0.16 kcal/mol |
| GATTTCACGTGTAGGC | 0.3 kcal/mol |
| TTAGTCACGTGCGGTA | 0.05 kcal/mol |
| AGGATCACGTGGGTAT | -0.05 kcal/mol |
| GTGAACACGTGGGGCA | -0.16 kcal/mol |
| GGAGCCACGTGGGGGC | -0.31 kcal/mol |
| TTGAACACGTGACGTT | 0.21 kcal/mol |
| GGTGTCACGTGTCGTC | 0.17 kcal/mol |
| CAGGACACGTGGGATG | -0.1 kcal/mol |
| TTGTCCACGTGATGTA | 0.09 kcal/mol |
| GGTAGCACGTGTGAAT | 0.06 kcal/mol |
| TTGAACACGTGTTTTG | 0.09 kcal/mol |
| GCGTCCACGTGTGGTG | 0.01 kcal/mol |
| TTGTGCACGTGGGAAC | -0.03 kcal/mol |
| GAGTACACGTGGTGTG | 0.18 kcal/mol |
| CATGTCACGTGGATGG | 0.07 kcal/mol |
| CAGTGCACGTGGGATG | -0.18 kcal/mol |
| GGGTGCACGTGAATTA | 0.26 kcal/mol |
| CGAGTCACGTGTGTAG | 0.06 kcal/mol |
| GCTTGCACGTGGTGGT | 0.06 kcal/mol |
| GTAAGCACGTGGTGCT | -0.12 kcal/mol |
| AGGTACACGTGCTGTT | -0.01 kcal/mol |
| AGGTACACGTGCTGCG | 0.1 kcal/mol |

| Sequence | relative binding free energy |
| --- | --- |
| TGATTCACGTGCGAGT | 0.31 kcal/mol |
| TTTAACACGTGTGCAT | 0.01 kcal/mol |
| CCAGGCACGTGTGTTG | -0.05 kcal/mol |
| CGCTTCACGTGGTGTA | 0.19 kcal/mol |
| GGTGACACGTGAGGCA | 0.17 kcal/mol |
| GATGGCACGTGGAATT | 0.05 kcal/mol |
| GTGTCCACGTGTGTTA | 0.24 kcal/mol |
| GATGTCACGTGGGATG | 0.13 kcal/mol |
| TGATGCACGTGCGGCT | -0.1 kcal/mol |
| GTGAACACGTGGTTGA | 0.08 kcal/mol |
| AGGTGCACGTGTCTGG | 0.03 kcal/mol |
| TAGAGCACGTGAGTTT | 0.1 kcal/mol |
| TTAATCACGTGCCGTG | 0.18 kcal/mol |
| GGGTCCACGTGGATTA | 0.22 kcal/mol |
| TTATGCACGTGTGGTG | -0.07 kcal/mol |
| CTGGCCACGTGTTTTG | 0 kcal/mol |
| TGTGTCACGTGGATGC | 0.01 kcal/mol |
| TGTGACACGTGTCGGT | -0.2 kcal/mol |
| TATTGCACGTGATTTA | 0.11 kcal/mol |
| ACGTGCACGTGATGTG | 0.13 kcal/mol |
| TGGGGCACGTGCGAGT | -0.1 kcal/mol |
| TATGACACGTGTAAAT | 0.24 kcal/mol |
| AATGACACGTGGCGGA | 0.22 kcal/mol |
| TGATCCACGTGGTGGG | 0 kcal/mol |
| AGGCGCACGTGGGGTG | -0.2 kcal/mol |

| Sequence | relative binding free energy |
| --- | --- |
| GGAGGCACGTGCTGTT | -0.21 kcal/mol |
| TGTTTCACGTGGAGAG | 0.26 kcal/mol |
| TTCGTCACGTGGTTAA | 0.09 kcal/mol |
| CGACTCACGTGGGAGT | 0.29 kcal/mol |
| CTTAACACGTGGGGTT | -0.15 kcal/mol |
| TTGGGCACGTGAGTGT | 0.12 kcal/mol |
| TGTATCACGTGGTTCA | 0.1 kcal/mol |
| ATTGTCACGTGTCTAA | 0.24 kcal/mol |
| TGTAACACGTGGCCGG | -0.07 kcal/mol |
| ATGCGCACGTGGTTGG | -0.22 kcal/mol |
| TCAGGCACGTGGGTAG | -0.24 kcal/mol |
| TCAGGCACGTGTGAGA | 0.06 kcal/mol |
| CGGGGCACGTGTAGTT | -0.02 kcal/mol |
| AGAGTCACGTGGCGGA | 0.02 kcal/mol |
| CTGGTCACGTGGATAT | -0.02 kcal/mol |
| TCTATCACGTGAATTG | 0.43 kcal/mol |
| TTGACCACGTGGTGTT | -0.15 kcal/mol |
| GTCGGCACGTGGAGGA | -0.06 kcal/mol |
| AGTATCACGTGAATGG | 0.03 kcal/mol |
| TTAGACACGTGTTAGG | 0.06 kcal/mol |
| TACGTCACGTGGAAGG | 0.02 kcal/mol |
| TTCAGCACGTGTGGAA | 0.01 kcal/mol |
| GGTAGCACGTGAGTCG | 0.21 kcal/mol |
| ATAGGCACGTGGGGGC | -0.32 kcal/mol |
| GTATTCACGTGTGGTT | 0.41 kcal/mol |

| Sequence | relative binding free energy |
| --- | --- |
| CGTACCACGTGGTGGG | -0.22 kcal/mol |
| TATAGCACGTGGGAAT | -0.12 kcal/mol |
| AGAGTCACGTGTGGCT | 0.1 kcal/mol |
| GATATCACGTGATGTT | 0.2 kcal/mol |
| TTTTTCACGTGGCTTT | 0.14 kcal/mol |
| GTGGGCACGTGGTGGT | -0.02 kcal/mol |
| ATTGTCACGTGGTGTT | 0.03 kcal/mol |
| AAGTTCACGTGTTAGC | 0.42 kcal/mol |
| GCGTTCACGTGGTTCG | 0.27 kcal/mol |
| GTAATCACGTGTGGGT | 0.24 kcal/mol |
| ATAGACACGTGTAATG | 0.16 kcal/mol |
| TTTTCCACGTGATGGT | 0.22 kcal/mol |
| GTTTTCACGTGTGATA | 0.3 kcal/mol |
| GTCAGCACGTGTCTGG | -0.01 kcal/mol |
| TTATACACGTGTCTTT | 0.06 kcal/mol |
| CCTTGCACGTGGTGGG | -0.23 kcal/mol |
| AGTCGCACGTGTTTAG | 0.07 kcal/mol |
| GGGTGCACGTGAGGGT | 0.29 kcal/mol |
| ATGATCACGTGTGGGG | 0.25 kcal/mol |
| AATGGCACGTGTTGAT | -0.05 kcal/mol |
| TTGTGCACGTGTTTCT | -0.01 kcal/mol |
| TAGTTCACGTGTCGTA | 0.24 kcal/mol |
| TTTTGCACGTGGTTAT | -0.04 kcal/mol |
| CTGTACACGTGGTTAG | -0.11 kcal/mol |
| TACAGCACGTGTTTTT | -0.01 kcal/mol |

| Sequence | relative binding free energy |
| --- | --- |
| ATGAGCACGTGCATGG | -0.05 kcal/mol |
| TTCAGCACGTGTTGTG | -0.12 kcal/mol |
| GAATACACGTGGGTTA | -0.06 kcal/mol |
| TAAGCCACGTGTTGAT | 0.17 kcal/mol |
| GTTTACACGTGGTCCG | 0.11 kcal/mol |
| GGTTGCACGTGAAAGT | 0.34 kcal/mol |
| TTGTACACGTGAAGTA | 0.13 kcal/mol |
| GTTAGCACGTGATTAC | 0.23 kcal/mol |
| TTAGGCACGTGGTTAA | -0.13 kcal/mol |
| TGGCGCACGTGAGATT | 0.2 kcal/mol |
| GGAGACACGTGAGGGG | 0.22 kcal/mol |
| TATTGCACGTGGTATA | -0.17 kcal/mol |
| GTTATCACGTGGATAT | 0.19 kcal/mol |
| CAGGTCACGTGGGGTG | -0.07 kcal/mol |
| GGGGTCACGTGGTCTT | 0.16 kcal/mol |
| TGTGGCACGTGCAATT | 0.1 kcal/mol |
| TCGGGCACGTGTAAGA | 0.18 kcal/mol |
| GGAGTCACGTGGCTTG | 0.13 kcal/mol |
| GGACTCACGTGTTGGT | 0.26 kcal/mol |
| GTTAGCACGTGCTGTT | -0.08 kcal/mol |
| GGCGACACGTGGGAGT | -0.06 kcal/mol |
| GAGAGCACGTGGGGAA | -0.17 kcal/mol |
| ACTTACACGTGTGTGT | 0.07 kcal/mol |
| CTATGCACGTGGAGGG | -0.06 kcal/mol |
| GACGGCACGTGTGAGG | 0.12 kcal/mol |

| Sequence | relative binding free energy |
| --- | --- |
| GGCAGCACGTGCGGTG | 0.01 kcal/mol |
| TTTTTCACGTGAGCGA | 0.52 kcal/mol |
| TAGTGCACGTGTTGAG | 0.12 kcal/mol |
| TAAATCACGTGGAGGT | 0.2 kcal/mol |
| GTGTGCACGTGTACAG | -0.06 kcal/mol |
| TAGGTCACGTGGGACG | 0.06 kcal/mol |
| CGAGGCACGTGTCTGG | -0.06 kcal/mol |
| CTGTGCACGTGGTAGT | -0.1 kcal/mol |
| AGGTACACGTGAAATT | 0.18 kcal/mol |
| TTGGTCACGTGGATCG | 0.08 kcal/mol |
| TTCGACACGTGCAGGG | 0.11 kcal/mol |
| TGGTCCACGTGTTCGT | -0.06 kcal/mol |
| CATTTCACGTGTTGTC | 0.32 kcal/mol |
| TATACCACGTGGTGTA | -0.16 kcal/mol |
| GGTGGCACGTGGTTAG | -0.11 kcal/mol |
| TGTTTCACGTGCGACT | 0.46 kcal/mol |
| GTTTGCACGTGACGGT | 0.23 kcal/mol |
| TTGTGCACGTGGGCTC | -0.14 kcal/mol |
| AGGTGCACGTGTGTGC | 0 kcal/mol |
| TTATTCACGTGAGCAG | 0.51 kcal/mol |
| CTTTTCACGTGAAATT | 0.36 kcal/mol |

From the BET-seq Pho4 binding data (Le et al. 2018)
